Measurements: EPA's CvTdb concentration-time database
The source gives many values for each of these; only a part stands here.

Assays:
Assay in all cases: concentration in liver after dosing
Rat [1] = settings: 2208 h; dosed: 2,3,4,7,8-pentachlorodibenzofuran; 200 mg/kg; oral; Male; F344
Rat [2] = settings: 2880 h; dosed: 2,3,4,7,8-pentachlorodibenzofuran; 200 mg/kg; oral; Female; Harlan Sprague Dawley
Rat [3] = settings: 6000 h; dosed: 2,3,4,7,8-pentachlorodibenzofuran; 200 mg/kg; oral; Female; Harlan Sprague Dawley
Rat [4] = settings: 8184 h; dosed: 2,3,4,7,8-pentachlorodibenzofuran; 200 mg/kg; oral; Female; F344
Rat [5] = settings: 3984 h; dosed: 2,3,4,7,8-pentachlorodibenzofuran; 200 mg/kg; oral; Female; Harlan Sprague Dawley
Rat [6] = settings: 768 h; dosed: 2,3,4,7,8-pentachlorodibenzofuran; 200 mg/kg; oral; Male; F344
Rat [7] = settings: 1464 h; dosed: 2,3,4,7,8-pentachlorodibenzofuran; 200 mg/kg; oral; Male; F344
Rat [8] = settings: 7416 h; dosed: 2,3,4,7,8-pentachlorodibenzofuran; 200 mg/kg; oral; Female; F344
Rat [9] = settings: 8184 h; dosed: 2,3,4,7,8-pentachlorodibenzofuran; 200 mg/kg; oral; Female; F344; remark: listed apart in the source
Rat [10] = settings: 6000 h; dosed: 2,3,4,7,8-pentachlorodibenzofuran; 200 mg/kg; oral; Female; Harlan Sprague Dawley; remark: listed apart in the source
Rat [11] = settings: 288 h; dosed: 2,3,4,7,8-pentachlorodibenzofuran; 200 mg/kg; oral; Male; F344
Rat [12] = settings: 8184 h; dosed: 2,3,4,7,8-pentachlorodibenzofuran; 200 mg/kg; oral; Female; F344; remark: listed apart in the source
Rat [13] = settings: 6744 h; dosed: 2,3,4,7,8-pentachlorodibenzofuran; 200 mg/kg; oral; Female; Harlan Sprague Dawley
Rat [14] = settings: 1464 h; dosed: 2,3,4,7,8-pentachlorodibenzofuran; 200 mg/kg; oral; Male; F344; remark: listed apart in the source
Rat [15] = settings: 2208 h; dosed: 2,3,4,7,8-pentachlorodibenzofuran; 200 mg/kg; oral; Male; F344; remark: listed apart in the source
Rat [16] = settings: 120 h; dosed: 2,3,4,7,8-pentachlorodibenzofuran; 200 mg/kg; oral; Male; F344
Rat [17] = settings: 2208 h; dosed: 2,3,4,7,8-pentachlorodibenzofuran; 200 mg/kg; oral; Male; F344; remark: listed apart in the source
Rat [18] = settings: 8760 h; dosed: 2,3,4,7,8-pentachlorodibenzofuran; 200 mg/kg; oral; Female; F344
Rat [19] = settings: 288 h; dosed: 2,3,4,7,8-pentachlorodibenzofuran; 200 mg/kg; oral; Male; F344; remark: listed apart in the source
Rat [20] = settings: 768 h; dosed: 2,3,4,7,8-pentachlorodibenzofuran; 200 mg/kg; oral; Male; F344; remark: listed apart in the source
Rat [21] = settings: 1464 h; dosed: 2,3,4,7,8-pentachlorodibenzofuran; 200 mg/kg; oral; Male; F344; remark: listed apart in the source
Rat [22] = settings: 6744 h; dosed: 2,3,4,7,8-pentachlorodibenzofuran; 200 mg/kg; oral; Female; Harlan Sprague Dawley; remark: listed apart in the source
Rat [23] = settings: 6744 h; dosed: 2,3,4,7,8-pentachlorodibenzofuran; 200 mg/kg; oral; Female; Harlan Sprague Dawley; remark: listed apart in the source
Rat [24] = settings: 3984 h; dosed: 2,3,4,7,8-pentachlorodibenzofuran; 200 mg/kg; oral; Female; Harlan Sprague Dawley; remark: listed apart in the source
Rat [25] = settings: 7416 h; dosed: 2,3,4,7,8-pentachlorodibenzofuran; 200 mg/kg; oral; Female; F344; remark: listed apart in the source
Rat [26] = settings: 5088 h; dosed: 2,3,4,7,8-pentachlorodibenzofuran; 200 mg/kg; oral; Female; Harlan Sprague Dawley
Rat [27] = settings: 6744 h; dosed: 2,3,4,7,8-pentachlorodibenzofuran; 200 mg/kg; oral; Female; Harlan Sprague Dawley; remark: listed apart in the source
Rat [28] = settings: 8760 h; dosed: 2,3,4,7,8-pentachlorodibenzofuran; 200 mg/kg; oral; Female; F344; remark: listed apart in the source
Rat [29] = settings: 6000 h; dosed: 2,3,4,7,8-pentachlorodibenzofuran; 200 mg/kg; oral; Female; Harlan Sprague Dawley; remark: listed apart in the source
Rat [30] = settings: 2880 h; dosed: 2,3,4,7,8-pentachlorodibenzofuran; 200 mg/kg; oral; Female; Harlan Sprague Dawley; remark: listed apart in the source
Rat [31] = settings: 288 h; dosed: 2,3,4,7,8-pentachlorodibenzofuran; 200 mg/kg; oral; Male; F344; remark: listed apart in the source
Rat [32] = settings: 288 h; dosed: 2,3,4,7,8-pentachlorodibenzofuran; 200 mg/kg; oral; Male; F344; remark: listed apart in the source
Rat [33] = settings: 2208 h; dosed: 2,3,4,7,8-pentachlorodibenzofuran; 200 mg/kg; oral; Male; F344; remark: listed apart in the source
Rat [34] = settings: 1464 h; dosed: 2,3,4,7,8-pentachlorodibenzofuran; 200 mg/kg; oral; Male; F344; remark: listed apart in the source
Rat [35] = settings: 768 h; dosed: 2,3,4,7,8-pentachlorodibenzofuran; 200 mg/kg; oral; Male; F344; remark: listed apart in the source
Rat [36] = settings: dosed: 2,3,4,7,8-pentachlorodibenzofuran, 200 mg/kg, oral
Rat [37] = settings: 8184 h; dosed: 2,3,4,7,8-pentachlorodibenzofuran; 200 mg/kg; oral; Female; F344; remark: listed apart in the source
Rat [38] = settings: 5088 h; dosed: 2,3,4,7,8-pentachlorodibenzofuran; 200 mg/kg; oral; Female; Harlan Sprague Dawley; remark: listed apart in the source
Rat [39] = settings: 768 h; dosed: 2,3,4,7,8-pentachlorodibenzofuran; 200 mg/kg; oral; Male; F344; remark: listed apart in the source
Rat [40] = settings: 120 h; dosed: 2,3,4,7,8-pentachlorodibenzofuran; 200 mg/kg; oral; Male; F344; remark: listed apart in the source
Rat [41] = settings: 6000 h; dosed: 2,3,4,7,8-pentachlorodibenzofuran; 200 mg/kg; oral; Female; Harlan Sprague Dawley; remark: listed apart in the source
Rat [42] = settings: 3984 h; dosed: 2,3,4,7,8-pentachlorodibenzofuran; 200 mg/kg; oral; Female; Harlan Sprague Dawley; remark: listed apart in the source
Rat [43] = settings: 5088 h; dosed: 2,3,4,7,8-pentachlorodibenzofuran; 200 mg/kg; oral; Female; Harlan Sprague Dawley; remark: listed apart in the source
Rat [44] = settings: 8760 h; dosed: 2,3,4,7,8-pentachlorodibenzofuran; 200 mg/kg; oral; Female; F344; remark: listed apart in the source
Rat [45] = settings: 2880 h; dosed: 2,3,4,7,8-pentachlorodibenzofuran; 200 mg/kg; oral; Female; Harlan Sprague Dawley; remark: listed apart in the source
Rat [46] = settings: 120 h; dosed: 2,3,4,7,8-pentachlorodibenzofuran; 200 mg/kg; oral; Male; F344; remark: listed apart in the source
Rat [47] = settings: 5088 h; dosed: 2,3,4,7,8-pentachlorodibenzofuran; 200 mg/kg; oral; Female; Harlan Sprague Dawley; remark: listed apart in the source
Rat [48] = settings: 7416 h; dosed: 2,3,4,7,8-pentachlorodibenzofuran; 200 mg/kg; oral; Female; F344; remark: listed apart in the source
Rat [49] = settings: 8760 h; dosed: 2,3,4,7,8-pentachlorodibenzofuran; 200 mg/kg; oral; Female; F344; remark: listed apart in the source
Rat [50] = settings: 3984 h; dosed: 2,3,4,7,8-pentachlorodibenzofuran; 200 mg/kg; oral; Female; Harlan Sprague Dawley; remark: listed apart in the source

Clc1cc2oc3c(Cl)c(Cl)c(Cl)cc3c2cc1Cl [2,3,4,7,8-pentachlorodibenzofuran]
Settings | concentration in liver [pg/g]
Rat [1] | 1840
Rat [2] | 2110
Rat [3] | 794
Rat [4] | 690
Rat [5] | 859
Rat [6] | 3840
Rat [7] | 3360
Rat [8] | 522
Rat [9] | 937
Rat [10] | 1120
Rat [11] | 3840
Rat [12] | 718
Rat [13] | 855
Rat [14] | 3110
Rat [15] | 2020
Rat [16] | 4960
Rat [17] | 2110
Rat [18] | 457
Rat [19] | 4640
Rat [20] | 4270
Rat [21] | 3440
Rat [22] | 1030
Rat [23] | 909
Rat [24] | 1590
Rat [25] | 967
Rat [26] | 1470
Rat [27] | 718
Rat [28] | 429
Rat [29] | 1330
Rat [30] | 1430
Rat [31] | 2850
Rat [32] | 2950
Rat [33] | 3070
Rat [34] | 2190
Rat [35] | 4160
Rat [37] | 613
Rat [38] | 1180
Rat [39] | 3770
Rat [40] | 4000
Rat [41] | 953
Rat [42] | 1880
Rat [43] | 777
Rat [44] | 391
Rat [45] | 1650
Rat [46] | 4440
Rat [47] | 969
Rat [48] | 845
Rat [49] | 687
Rat [50] | 1690

concentration in liver [pg/g], Rat [36]
Settings | F344 | Harlan Sprague Dawley
1.5 h, Female | – | 446
24 h, Female | – | 4320
120 h, Male | 4920 | 5000
288 h, Male | 3660 | –
768 h, Male | 3940 | –
1464 h, Male | 4500 | –
2208 h, Male | 3280 | –
2880 h, Female | – | 1990
2880 h, Male | 2050 | –
3984 h, Female | – | 1450
5088 h, Female | – | 1050
6000 h, Female | – | 919
6744 h, Female | – | 1110
7416 h, Female | 1130 | 1030
8184 h, Female | 573 | –
8760 h, Female | 441 | –
